Results as given in PubChem BioAssay AID1963835 (Molecular Pharmacology Branch, DTP, NCI, 2024).
A number of entries come with more than one value. They are shown here; other results are not. The source may hold further records. The records of an entry are repeats (runs, samples, wells, individuals or studies). Additions like (4×) give the number of equal values in this list. Marks such as [2022-09] give the month of the run.

Test system: 699152-130-R-J1-PDC complex spheroid viability
Assay: Anticancer human tumor 699152-130-R-J1-PDC patient-derived pancreatic carcinoma cell line growth inhibition [POLQ]
Details: for viability, T/C: stronger effect = lower value
Procedure: Multicellular complex tumor spheroid response to Polymerase (POL) inhibitors (novobiocin, ART-558, RP6685) in combination with a variety of drugs and investigational agents in selected tumor cell lines
The POL inhibitors (novobiocin, ART-558, and RP6685) were evaluated both individually and in combination with standard of care and investigational anticancer small molecules within a complex spheroid model of solid tumors. . Complex spheroids include a stromal component modeled by human endothelial cells (HUVEC) and fibroblasts modeled by human mesenchymal stem cells (MSCs). The concentration ranges selected for each drug and investigational agent were based upon clinically achievable concentrations if the clinical Cmax of the agent was known.
Compounds. The drugs and investigational agents: novobiocin (NSC847541), ART-558 (NSC835418), RP-6685 (NSC848927), peposertib (NSC802822), ceralasertib (NSC780249), elimusertib (NSC800525), camonsertib (NSC841442), AZD-1390 (NSC803789), olaparib (NSC753686), talazoparib (NSC767125), rucaparib (NSC756644), sotorasib (NSC818433), MRTX-1133 (NSC836407), SN-38 (NSC673596), topotecan (NSC609699), epotoside (NSC141540), doxorubicin (NSC123127), gemcitabine (NSC613327), 5-fluorouracil (NSC19893), paclitaxel (NSC125973), vemurafenib (NSC761431), MSA-2 (NSC828583), SN-011 (NSC837082), adavosertib (NSC754352), prexasertib (NSC758257), carboplatin (NSC241240) and oxaliplatin (NSC266046), were obtained from the National Cancer Institute (NCI) Developmental Therapeutics Program Chemical Repository (21). The FDA-approved anticancer drug set is available from the Developmental Therapeutics Program at https://dtp.cancer.gov/organization/dscb/obtaining/. […] The stock solutions were prepared in dimethyl sulfoxide (DMSO, Sigma-Aldrich, St. Louis, MO, cat. D2650), except for the platinum compounds which were prepared in saline (Quality Biological, Gaithersburg, MD, cat. 114-055-101), at 800-fold the tested concentration and stored at -70 degrees C prior to their use. All drugs and investigational agents were tested over a range starting from a high concentration at or near the clinical Cmax and decreasing in half-log increments. If the clinical Cmax for an agent had not been determined, the highest concentration tested was 10 microM, except for SN-38, which was tested at a high concentration of 1 microM.
Cell Culture. All cells were maintained in an incubator at 37 degrees C and 5% CO2 with 95% humidity. The PDC lines were cultured according to standard operating procedures established by the NCI PDMR (https://pdmr.cancer.gov). Table 3 of the manuscript, lists the cell lines along with the number of the three cell types plated to form the mct-spheroids and media for tumor cell growth. After thawing, all PDC lines, except 997537-175-T-J1-PDC and 415267-285-R-J2-PDC, were cultured in Matrigel-coated flasks prepared with a working solution of 1X Ham's F-12 nutrient mix, without supplementation (Thermo Fisher Scientific, cat. 11765054), 100 U/mL penicillin-streptomycin (Thermo Fisher Scientific, cat. 15140122), and 2.5% Matrigel (Corning Inc., Corning, NY, cat. 354248) for the first three passages. The two PDC lines 997537-175-T-J1-PDC and 415267-285-R-J2-PDC were cultured on uncoated flasks. The 857933-349-R-J2-PDC line was cultured in 6C/Colon 1B media containing advanced DMEM/F-12 (Thermo Fisher Scientific, cat. 12634028), 10 mM HEPES (Thermo Fisher Scientific, cat. 15630080), 1X GlutaMAX supplement (Thermo Fisher Scientific, cat. 35050061), 0.1 mg/mL primocin (InvivoGen, San Diego, CA, cat. ant-pm-2), 10% defined fetal bovine serum, heat inactivated (HyClone Laboratories Inc., Logan, UT, cat. SH30070.03HI), 50% L-WRN conditioned media (ATCC, cat. CRL-3276), 1.25 mM N-Acetyl-L-cysteine (Sigma-Aldrich, cat. A9165), 10 mM nicotinamide (Sigma-Aldrich, cat. N0636), 1X B-27 supplement (Thermo Fisher Scientific, cat. 17504044), 1X N-2 supplement (Thermo Fisher Scientific, cat. […]
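Further: spheroids exposed to agents for 7 days before viability reading.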
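Wherever viability, T/C is given: percent of DMSO vehicle control viability so 100% = vehicle and 0% = no viable signal.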

COC1C(OC(N)=O)C(O)C(Oc2ccc3c(O)c(NC(=O)c4ccc(O)c(CC=C(C)C)c4)c(=O)oc3c2C)OC1(C)C (stereo not drawn)
viability, T/C (compound alone 0.0316 µM): 107, 106, 39.9, 95.9, 92.1, 109, 99, 105 (2×), 99.9, 111, 99.6, 94.9%
viability, T/C (compound alone 0.1 µM): 94, 106, 39.1, 103 (2×), 101, 102, 113, 100, 95.8 (2×), 104%
viability, T/C (compound alone 0.316 µM): 97.2, 102 (2×), 39.7, 92.9, 93.2, 104, 101, 98.5, 105, 97.3, 91.5, 99.2%
viability, T/C (compound alone 1 µM): 122, 106, 42.6, 102, 92.5, 104 (2×), 98.8, 118, 96.7, 108, 95.1, 101%
viability, T/C (compound alone 3.16 µM): 108, 100, 40.1, 93.4, 117, 96.3, 96, 91.8, 107, 97, 110, 112, 115%
viability, T/C (compound alone 10 µM): 125, 116, 40.8, 102 (3×), 112, 103, 104, 119, 107, 98.3, 99.5%
IC50 (compound alone, run of 11/27/2023): < 31.6 nM and > 10 µM

Cc1cccc(N(C)C(=O)C2C(O)CCN2c2nc(C)cc(C(F)(F)F)c2C#N)c1 (stereo not drawn)
viability, T/C (compound alone 3.16 µM): 110, 107, 99.6, 93.3, 106, 88.9, 109, 113% [2023-11] and 98.7, 100, 115, 97.6, 104% [2023-12]
